The list shows a part of the results. Further columns of the screen follow, without active or inactive calls. Compounds called inactive in the main read-out are mostly missing here.

This assay in a line: qHTS Assay for Lipid Storage Modulators (AID 1519). As to conditions: Drosophila S3 cells, BODIPY lipid droplet/cell ratio, laser cytometry; measured here: lipid channel max response; cells loaded with oleic acid. The procedure, abridged: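 Cells seeded at 5,000 per well were treated with compounds over a concentration series and loaded with oleic acid (400 uM, as added). Lipid droplet fluorescence (488 nm excitation, 500-530 nm channel) was read by laser-scanning cytometry and normalized to 20 uM Triacsin C.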
(qHTS replaces the single test concentration by a dilution series.)
Regarding `COCCn1c(=O)c(CCc2ccccc2)nc2cnc(Oc3ccccc3)nc21`, the max response was 35.7%.
On to `COc1ccc(NC(=O)N2CC3(CCN(S(=O)(=O)c4ccccc4)CC3)C2)cc1`, for which the max response was -32.3%.
As for `COc1ccc(-n2c(=O)c(-c3ccc(F)c(F)c3)nc3cncnc32)cc1`, the figure is 41.2%.

The values above are taken from PubChem BioAssay (NCATS).
